Source: PubChem BioAssay (NCATS)
The shares of active, inactive and inconclusive entries below differ from those in the screen. For some of these results: Where the call is inconclusive, the potency comes from a doubtful curve fit. The source made the active and inactive calls. Calls follow the shape of the dose curve; as a rule, active = well fitted curve in the direction sought with a large enough effect; inconclusive = small, poorly fitted or top-dose-only effect, or another doubt; inactive = no such curve, though single readings can be large; an effect the other way counts as inactive or inconclusive.

Tests used:
[1] = qHTS Assay for Identifying Gametocytocidal Compounds (AID 743244);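 also: % is scaled to controls: 0 for no effect and ±100 for the full control effect; actives lower the fluorescent signal which means gametocytes are killed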; conditions: P. falciparum 3D7 stage III-V gametocytes, alamarBlue, 72 h; max response: hits give low values
Outline: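 Using 20,000 stage III–V 3D7 gametocytes per well, compounds were incubated 72 h under 37 °C/5% CO2. Viability was then assessed by 24 h alamarBlue reduction, measured fluorometrically at 525/598 nm.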

[2] = qHTS assay for cell viability of HEK293 cells (AID 743288); conditions: ATP luminescence (CellTiter-Glo), 18 h; max response: hits give low values; also: nearly all actives have a fitted effect of over 50% in size; also: potency is read from the fitted curve at half-maximal effect; as to max response: % is scaled to controls: 0 for no effect and ±100 for the full control effect
Outline: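 Readout is luciferase-coupled ATP content (CellTiter-Glo luminescence, 30 min room temperature) as a measure of metabolically competent cells. Parental HEK293 cells were plated 5 h or more before compound addition, then treated 18 h at 37 C.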

[3] = molecular target: Vitamin D3 receptor (Homo sapiens) (UniProt P11473); assay: qHTS for Inhibitors of the vitamin D receptor (VDR): Hit Validation using a Fluorescein Assay (AID 602200); also: potency is read from the fitted curve at half-maximal effect
Outline: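 Fluorescence polarization: 1.5 uM VDR-LBD, 5 uM LG19078 and 5 nM fluorescein-labeled SRC2-3 peptide (final) with compounds, 2 h at room temperature. Read at Ex 495/Em 520 nm; peptide-only wells served as control.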

[4] = molecular target: Vitamin D3 receptor (Homo sapiens) (UniProt P11473); assay: qHTS for Inhibitors of the vitamin D receptor (VDR): Hit Validation in Primary Screen (AID 602199); conditions: VDR-coactivator inhibition assay, qHTS confirmation; also: potency is read from the fitted curve at half-maximal effect
Outline: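 Fluorescence polarization (Ex 620/Em 688 nm) of Alexa 647-SRC2-3 peptide with 800 nM VDR and 5 uM LG19078. Compounds at several concentrations, 2 h at room temperature.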

[5] = qHTS for Inhibitors of the vitamin D receptor (VDR): Hit Validation using a Texas Red Assay (AID 602201); also: potency is read from the fitted curve at half-maximal effect
Outline: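 Fluorescence polarization with 1.5 uM VDR-LBD, LG19078 and 7 nM Texas Red (final). After 2 hours at ambient temperature, read at Ex 595 nm/Em 615 nm.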

[6] = molecular target: Vitamin D3 receptor (Homo sapiens) (UniProt P11473); assay: qHTS for Inhibitors of the vitamin D receptor (VDR): Hit Validation using a Beta-Lactamase Assay (AID 602202); also: potency is read from the fitted curve at half-maximal effect
Outline: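 Stably transfected HEK293 cells expressing VDR-GAL4 DNA-binding domain fusion with UAS-driven beta-lactamase reporter, activated by agonist LG190178; compounds incubated 18 h, then FRET beta-lactam substrate 2 h; cleaved substrate read at 447 nm emission.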

[7] = qHTS for Inhibitors of the vitamin D receptor (VDR): Hit Validation using a Cytotoxicity Assay (AID 602204); also: nearly all actives have a fitted effect of over 75% in size
Outline: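 Using cycloheximide at high concentration as positive control and DMSO as negative, cells plated at 20,000 per well (4 h) are exposed to compounds for 18 h; ATP luminescence is read after 30 min.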

[8] = molecular target: DNA polymerase eta (Homo sapiens) (UniProt Q9Y253); assay: qHTS for Inhibitors of Polymerase Eta: Confirmatory Assay for Cherry-picked Compounds (AID 720502); conditions: Pol eta primer extension, TAMRA/BHQ fluorescence, 10 min; also: potency is read from the fitted curve at half-maximal effect
Outline: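 The reaction starts with 50 nM final labeled DNA substrate added to Pol eta (10 nM) that had sat with compound for 15 min. TAMRA emission at 598 nm is read at 0 and 10 min.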
Tags tell the direction and shape of the fitted curve.

Chain of UniProt P11473 (P11473 whole entry, looked up, the tested form may be a part): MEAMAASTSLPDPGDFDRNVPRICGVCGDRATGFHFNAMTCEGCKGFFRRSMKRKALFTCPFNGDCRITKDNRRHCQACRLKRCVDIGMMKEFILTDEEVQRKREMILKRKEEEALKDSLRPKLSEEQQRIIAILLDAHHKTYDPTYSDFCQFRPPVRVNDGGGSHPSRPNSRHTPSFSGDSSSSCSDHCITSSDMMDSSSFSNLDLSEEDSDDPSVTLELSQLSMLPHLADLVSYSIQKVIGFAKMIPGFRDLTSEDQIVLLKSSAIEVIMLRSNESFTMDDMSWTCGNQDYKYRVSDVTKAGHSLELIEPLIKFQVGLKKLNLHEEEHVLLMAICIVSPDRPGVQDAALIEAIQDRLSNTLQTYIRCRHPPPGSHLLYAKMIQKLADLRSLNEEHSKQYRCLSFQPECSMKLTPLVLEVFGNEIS
Chain of UniProt Q9Y253 (Q9Y253 whole entry, looked up): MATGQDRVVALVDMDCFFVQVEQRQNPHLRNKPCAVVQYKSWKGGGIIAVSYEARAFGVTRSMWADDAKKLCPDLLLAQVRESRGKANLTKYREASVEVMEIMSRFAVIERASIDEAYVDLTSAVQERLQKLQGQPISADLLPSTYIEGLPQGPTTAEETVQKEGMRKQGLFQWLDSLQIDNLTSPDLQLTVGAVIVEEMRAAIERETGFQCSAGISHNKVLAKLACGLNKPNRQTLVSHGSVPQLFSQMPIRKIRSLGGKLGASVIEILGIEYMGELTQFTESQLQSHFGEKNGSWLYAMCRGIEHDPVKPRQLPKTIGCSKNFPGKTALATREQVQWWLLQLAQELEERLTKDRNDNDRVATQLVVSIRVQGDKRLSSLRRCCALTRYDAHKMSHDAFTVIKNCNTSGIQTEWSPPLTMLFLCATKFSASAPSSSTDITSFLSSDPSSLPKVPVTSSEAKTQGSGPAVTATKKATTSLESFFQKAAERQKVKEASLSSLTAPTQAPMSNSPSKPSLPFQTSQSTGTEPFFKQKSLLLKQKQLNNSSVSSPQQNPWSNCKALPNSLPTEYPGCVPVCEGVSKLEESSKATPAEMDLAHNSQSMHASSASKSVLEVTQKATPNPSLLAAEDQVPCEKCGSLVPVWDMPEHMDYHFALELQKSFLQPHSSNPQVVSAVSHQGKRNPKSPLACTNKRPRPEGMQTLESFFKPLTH

CCCCCCCCCc1ccc(OCCOCCO)cc1
max response [1]: inactive: -0.96%

CCC/C(=N\OCC)C1=C(O)CC(O)(CC(C)S(=O)(=O)CC)CC1=O (stereo not given)
max response [2]: inactive: -1.14%

CC/C(=C(\c1ccc(O)cc1)c1ccc(OCCN(C)C)cc1)c1ccccc1
Potency [2]: active: 25.1 µM

Cc1cccc2c1N(CCCOc1ccccc1)C(=O)C2=O
Potency [3]: inconclusive: 14.1 µM [inhibitor, partial curve]

O=C(/C=C/c1ccc([N+](=O)[O-])cc1)c1cccs1
Potency [4]: inconclusive: 8.91 µM [inhibitor, partial curve] | Potency [5]: active: 25.1 µM | Potency [6]: inconclusive: 25.9 µM [inhibitor, single point] | Potency [7]: inactive

Cc1cc(C(C2C(=O)CC(C)(C)CC2=O)C2C(=O)CC(C)(C)CC2=O)cc(C)c1OC(F)F
Potency [3]: inconclusive: 3.16 µM [inhibitor, full curve] | Potency [5]: inactive

CCOC(=O)/C(C#N)=C1/C(=O)N(Cc2ccccc2)c2ccccc21
Potency [3]: inconclusive: 3.98 µM [inhibitor, full curve, poor fit]

Cc1ccccc1OCCCN1C(=O)C(=O)c2cccc(C)c21
Potency [4]: inconclusive: 21.2 µM [inhibitor, partial curve] | Potency [3]: active: 11.2 µM | Potency [5]: inconclusive: 11.2 µM [inhibitor, partial curve] | Potency [7]: inactive

COc1ccc(C(C2C(=O)CC(C)(C)CC2=O)C2C(=O)CC(C)(C)CC2=O)cc1COCC(F)(F)F
Potency [3]: inconclusive: 3.16 µM [inhibitor, partial curve, poor fit] | Potency [5]: inconclusive: 5.01 µM [inhibitor, single point]

Cc1ccc(C(=O)NC2(O)C(=O)c3ccccc3C2=O)cc1C
Potency [4]: inconclusive: 8.44 µM [inhibitor, partial curve] | Potency [3]: inconclusive: 2.82 µM [inhibitor, partial curve, poor fit] | Potency [5]: inactive | Potency [7]: inactive | Potency [8]: inconclusive: 84.9 µM [inhibitor, single point]

COc1ccccc1NS(=O)(=O)c1cc(N)ccc1N1CCOCC1
Potency [4]: active: 21.2 µM | Potency [5]: inconclusive: 10 µM [inhibitor, partial curve] | Potency [7]: inactive

Cc1ccc(S(=O)(=O)Nc2nsc(N)n2)cc1
Potency [3]: inconclusive: 10 µM [inhibitor, partial curve] | Potency [5]: inconclusive: 6.31 µM [inhibitor, full curve]

Cc1ccc(/C=C/C(=O)c2nc3ccccc3[nH]2)cc1
Potency [4]: inconclusive: 5.32 µM [inhibitor, partial curve] | Potency [3]: inconclusive: 3.55 µM [inhibitor, single point] | Potency [5]: inconclusive: 3.55 µM [inhibitor, partial curve, poor fit] | Potency [6]: inconclusive: 32.6 µM [inhibitor, single point] | Potency [7]: inactive

COc1ccc(/C=C2\COc3ccccc3C2=O)cc1OC
Potency [4]: active: 22.4 µM | Potency [5]: inconclusive: 35.5 µM [inhibitor, single point] | Potency [6]: inconclusive: 23.1 µM [inhibitor, single point] | Potency [7]: inconclusive: 23.8 µM [cytotoxic, single point]

CC(C)C[C@H](N)c1nnc(S(=O)(=O)Cc2ccc(F)cc2)o1
Potency [4]: inconclusive: 18.9 µM [inhibitor, partial curve] | Potency [3]: active: 20 µM | Potency [6]: inconclusive: 29.1 µM [inhibitor, single point] | Potency [7]: inconclusive: 20 µM [cytotoxic, single point]
